Laboratory results reported in PubChem BioAssay (NCI).
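Following 48 hours of exposure in 96-well plates, responses at five concentrations were used to interpolate endpoints linearly. GI50: concentration for 50% inhibition of growth.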 Not every entry of the source has a single result; some have several. They are shown here; other results are not. The source may hold further records. Records of one sample usually come from different ranges of test concentrations, not given here; a value can be the end of its range.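 TGI is the concentration that stops growth completely.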

How the values were obtained:
Experiment in all cases: NCI-60 cell line screen, 48 h
COLO 205 colon = system: COLO 205 colon
EKVX NSCLC = system: EKVX NSCLC
KM20L2 colon = system: KM20L2 colon
UACC-257 melanoma = system: UACC-257 melanoma
UACC-62 melanoma = system: UACC-62 melanoma
XF 498 CNS = system: XF 498 CNS
A498 renal = system: A498 renal
ACHN renal = system: ACHN renal
HL-60(TB) leukemia = system: HL-60(TB) leukemia
HOP-62 NSCLC = system: HOP-62 NSCLC
HOP-92 NSCLC = system: HOP-92 NSCLC
K-562 leukemia = system: K-562 leukemia
MCF7 breast = system: MCF7 breast
MDA-MB-231 breast = system: MDA-MB-231 breast
NCI-H522 lung = system: NCI-H522 lung
OVCAR-3 ovarian = system: OVCAR-3 ovarian
OVCAR-5 ovarian = system: OVCAR-5 ovarian
RPMI-8226 leukemia = system: RPMI-8226 leukemia
RXF 393 renal = system: RXF 393 renal
SF-539 CNS = system: SF-539 CNS
SK-MEL-2 melanoma = system: SK-MEL-2 melanoma
SK-MEL-5 melanoma = system: SK-MEL-5 melanoma
SK-OV-3 ovarian = system: SK-OV-3 ovarian
SR leukemia = system: SR leukemia
T-47D breast = system: T-47D breast
U251 CNS = system: U251 CNS
UO-31 renal = system: UO-31 renal
SF-268 CNS = system: SF-268 CNS
SNB-75 CNS = system: SNB-75 CNS

**Q.** What does the source list for C/C(=N\NC(=S)N1CCN(c2ccccn2)CC1)c1ccccn1?
**A.** TGI (COLO 205 colon): 45.6 nM and 26.5 µM; TGI (EKVX NSCLC): 0.889 nM and 11.8 µM; TGI (KM20L2 colon): 18.8 nM and 15.3 µM; TGI (UACC-257 melanoma): 91.6 nM and 2.1 µM; TGI (UACC-62 melanoma): 76.6 nM and 2.99 µM; TGI (XF 498 CNS): 6.82 nM and 18.6 µM

**Q.** How did the TGI (A498 renal) turn out when COc1cc2c(c(O)c1Cl)C(=O)c1c(O)cc(C[C@H](C)O)cc1[C@H]2[C@H]1c2cc(C[C@H](C)O)cc(O)c2C(=O)c2c1cc(OC)c(Cl)c2O was run?
**A.** 5.88 µM and 70.8 µM

**Q.** What about the TGI (ACHN renal) of the same compound?
**A.** 5.09 µM and > 100 µM

**Q.** And the GI50 (COLO 205 colon)?
**A.** 392 nM and 14.7 µM

**Q.** And the TGI (COLO 205 colon)?
**A.** 1.49 µM and 34.3 µM

**Q.** What about the TGI (HL-60(TB) leukemia) of the same compound?
**A.** 4.91 µM and 55.2 µM

**Q.** What about the TGI (HOP-62 NSCLC) of the same compound?
**A.** 8.29 µM and > 100 µM

**Q.** And the TGI (HOP-92 NSCLC)?
**A.** 5 µM and 76.4 µM

**Q.** What about the GI50 (K-562 leukemia) of the same compound?
**A.** 333 nM and 28.3 µM

**Q.** And the GI50 (MCF7 breast)?
**A.** 337 nM and 16.2 µM

**Q.** What about the TGI (MDA-MB-231 breast) of the same compound?
**A.** 4.64 µM and 58.5 µM

**Q.** What about the TGI (NCI-H522 lung) of the same compound?
**A.** 6.67 µM and > 100 µM

**Q.** What about the TGI (OVCAR-3 ovarian) of the same compound?
**A.** 4.45 µM and > 100 µM

**Q.** What about the TGI (OVCAR-5 ovarian) of the same compound?
**A.** 6.96 µM and > 100 µM

**Q.** What about the GI50 (RPMI-8226 leukemia) of the same compound?
**A.** 308 nM and 10.2 µM

**Q.** And the TGI (RXF 393 renal)?
**A.** 6.63 µM and 67.4 µM

**Q.** And the TGI (SF-539 CNS)?
**A.** 2.65 µM and 48.3 µM

**Q.** And the TGI (SK-MEL-2 melanoma)?
**A.** 2.96 µM and 53.3 µM

**Q.** And the TGI (SK-MEL-5 melanoma)?
**A.** 2.47 µM and 42.4 µM

**Q.** And the TGI (SK-OV-3 ovarian)?
**A.** 5.11 µM and > 100 µM

**Q.** And the GI50 (SR leukemia)?
**A.** 380 nM and 15.3 µM

**Q.** What about the GI50 (T-47D breast) of the same compound?
**A.** 292 nM and 14.5 µM

**Q.** And the TGI (T-47D breast)?
**A.** 4.81 µM and > 100 µM

**Q.** And the TGI (U251 CNS)?
**A.** 7.96 µM and > 100 µM

**Q.** What about the TGI (UACC-257 melanoma) of the same compound?
**A.** 4.93 µM and 71.6 µM

**Q.** And the TGI (UACC-62 melanoma)?
**A.** 5.65 µM and > 100 µM

**Q.** And the TGI (UO-31 renal)?
**A.** 6.84 µM and 79 µM

**Q.** Which GI50 (SK-MEL-2 melanoma) does the source give for N#Cc1c(NCc2ccccc2)nc(NCc2ccccc2)c(C#N)c1-c1ccc(Cl)cc1 here?
**A.** > 50 µM and 83.9 nM

**Q.** Which GI50 (RXF 393 renal) does the source give for CC1=C/C=C/C(=O)O[C@@H]([C@H](C)[C@H](O)[C@@H](C)NC(=O)C(C)C)[C@H](C)/C=C/C(C)=C/[C@H]2C=CCC[C@@]2(C)\C=C\1 here?
**A.** 57.6 nM and 776 nM

**Q.** What about the GI50 (SF-268 CNS) of the same compound?
**A.** 7.66 µM and 325 nM

**Q.** What about the GI50 (SNB-75 CNS) of the same compound?
**A.** 7.76 nM and 2.95 µM

**Q.** And the GI50 (UACC-257 melanoma)?
**A.** 3.89 µM and 214 nM
